Experimental data reported in the supplement of paper PMC11417369.
± gives the standard deviation of the averaged measurements. The list shows a part of the results.

Tested on: PfAP2-I AP2 domain 3 (GST-tagged)
Assay: gcPBM binding intensity (ln(normalized median fluorescence intensity)); higher = stronger DNA binding
Procedure, shortened: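 The highest Masliner-normalised natural-log median intensity across replicate spots of either probe orientation is reported as binding intensity. GST-tagged P. falciparum DNA-binding domains expressed in E. coli were applied for 1 h to an Agilent 4 × 180k array of primer-extended double-stranded 36-bp intergenic genomic probes plus negative controls, and bound protein was detected with Alexa488 anti-GST antibody and scanned at 488 nm.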

Sequence	gcPBM binding intensity (ln)
ATGTATAAACAAAAGGGTACATATATATATATATAT [XGTACX_site2087]	9.24 ± 0.17
AGAAAAATTACAAAATGTACATAATGTGTTATTAAT [XGTACX_site7877]	7.67 ± 0.61
TTATATAAAGAATGTACACACAGAAATGCACCCACA [CACACA_site2282]	11 ± 0.57
ATTAAATATGAGGGAACACACACATGATATATAAAT [CACACA_site8755]	7.98 ± 0.67
TTATATTTATAAAGGTGTACCTTAAAATGATTTTAC [XGTACX_site3774]	7.76 ± 0.29
ATATATTATATTAATTGTACATAAAAAAGAGAAAAA [XGTACX_site3366]	7.94 ± 0.52
AAAATTAAATAAAAATGTACAGAAATATTATATGAA [XGTACX_site5695]	7.68 ± 0.46
ATTTTATTTTTGTGCACACTGATAAATTGAAAAGAG [CACACA_site2948]	10.8 ± 0.18
TATTACACATATTATGTGCACATATATAATCAATAT	9.87 ± 0.46
TATATATATATAATATGTACATATATTAAGCATTTT [XGTACX_site4470]	8.985 ± 0.064
AAAAAAAAAAATTAAAGTACTAATTAAAATTATATG [XGTACX_site5289]	7.33 ± 0.35
TTTTAATTAAATAAATGTACTCATTCTATTATTTAT [XGTACX_site3032]	7.62 ± 0.26
ATAAATTTTTTATGAACACACAAATACCCACGCTCA [CACACA_site2659]	8.21 ± 0.4
AAATTCAATTTGCGCTGTACATGAAGATATAAATTT [XGTACX_site4844]	7.96 ± 0.5
ATACCTGTTGTGTTACGTACATAATTTTAATGTTTG [XGTACX_site8181]	8.28 ± 0.45
TATATATATAAATACACACACACACCCCAAAGCGTA [CACACA_site4211]	8.63 ± 0.57
TATTTTTTAAAAAATTATAAATAAAATTATATTACG [CACACA_negctrl_site324]	7.46 ± 0.3
AAAAAAAACACGCGCACACACACACCCACAGACACA [CACACA_site5253]	8.38 ± 0.092
ACAGTATATTAAAAAATACACACGTATTATATCTAC [CACACA_site2640]	7.59 ± 0.5
TATAATATATTCACTCGTACATATTTAATAATATCT [XGTACX_site6209]	7.78 ± 0.47
GTTTACTAATATTGCACACGAATATGAAAAAGAGAA [CACACA_site2897]	9.98 ± 0.48
TTTCTAATTTATATCACACACATATATTTATAGTAA [CACACA_site6280]	7.67 ± 0.49

Sequence	gcPBM binding intensity (ln)
GTGTTAACTATTATGAGTACTTATGTATTAATTCAT [XGTACX_site7767]	8 ± 0.26
TTGCTTATTAAATGGGGTACATTATATATATATATA [XGTACX_site2515]	9.04 ± 0.29
TAAATTTGTGGGATTTCACACAGGTTTATTTACATT [CACACA_site5455]	7.41 ± 0.63
TTCAGAGAATAAAAATGTACATATAATATTTTAAAA [XGTACX_site577]	7.77 ± 0.45
ATGTAGGTTAATTATTGTACGTAGGGGGTGTATATT [XGTACX_site3973]	9.68 ± 0.2
CTCTTGTCATTTTGCACACACACATGTATAGGTTAT [CACACA_site3057]	10.03 ± 0.085
TAATTTTATATTAAAAGTACATAATAAAAACTATAA [XGTACX_site8779]	7.79 ± 0.22
AAGAAATATATATATATATATATATATATATATGTA [TGCATGCA_negctrl_site442]	8.43 ± 0.23
TACATACACGGACACACACACATATATATATATATA [CACACA_site5883]	9.36 ± 0.33
CACTAATATATATACAGTACATAATAAAGTATATAA [XGTACX_site6875]	7.68 ± 0.26
TGATGATATAAAAACACACACATATAATATAATACT [CACACA_site1208]	7.81 ± 0.52
TTTAAAAACAAATATTGTACAAATTAAAATATATCA [XGTACX_site7220]	7.67 ± 0.47
AGAGCATAATAAAACACACACATACATACAGATATA [CACACA_site4671]	7.86 ± 0.45
TATTACCCATATTATACACACATATATTATATATAT [CACACA_site1567]	8.14 ± 0.42
CTGTTTTACTTTAGTAGTACAATAAAAATATAAAAA [XGTACX_site2934]	8.13 ± 0.27
AAAAAAAAAAAACATACACACAAATATATACATACA [CACACA_site4011]	7.62 ± 0.32
AAATGATGCATTTGTCATTAAAATTGTGAAATATTA [CACACA_negctrl_site231]	7.46 ± 0.6
AAAAAAAAAAAAAAAAGTACATATATATATAATTAT [XGTACX_site7836]	8.48 ± 0.48
ATAATATCTTCTTTTTTTTTTTTTTTTTTTTTTTTT [CACACA_negctrl_site1005]	9.76 ± 0.042
TATAATAAAATATGTACACACATACAGACATATATA [CACACA_site6693]	7.9 ± 0.2
ATATATATATAATGTGTACACACATATGTATTTATA [CACACA_site8170]	9.03 ± 0.33
TAATTAAGATGATAAAAATTGAAAAAACAATTTTAA [CACACA_negctrl_site658]	7.22 ± 0.53

Sequence	gcPBM binding intensity (ln)
CATATAGTATAAATTTGTACATAAATATATATATAT [XGTACX_site7477]	8.995 ± 0.064
AGAGTATATAAAGTAACACACAATAAAATAAAATAA [CACACA_site2328]	7.87 ± 0.94
TACCTAATATGTTATACACACATTATAAGTACATAT [CACACA_site7206]	7.99 ± 0.38
AATATAACTTAGAATTGTACATAAAAAAAAATATAT [XGTACX_site3313]	7.87 ± 0.61
TAAGAAATAAATAGTACACACATAGACACACGCACA [CACACA_site6821]	8.76 ± 0.085
ATACATAAAATTAAAACACACATTTTATTAAATACG [CACACA_site2167]	7.64 ± 0.58
GTGTGATGGTACAATATACACACTTAAAAAAAAAAA [CACACA_site8769]	8.14 ± 0.35
AGTTATATGGTTAATACACACAACAAATGTTTCTTC [CACACA_site6642]	7.98 ± 0.73
AAAAAATATATTTGCACACTCAAAAAAAAAAAAAAA [CACACA_site859]	10.1 ± 0.55
TTCAAAAAATAAAATAATAATATATATATAAATATA [XGTACX_negctrl_site84]	7.33 ± 0.11
TCATTAAAGGAAAAATGTACGTATAAATAAATATAT [XGTACX_site2587]	7.85 ± 0.82
TGTGTTTATACGTTTTGTACATATTTTTATTTTGTA [XGTACX_site6425]	7.79 ± 0.53
TTTACATCAACCTTTTCACACATTCATATACAGATA [CACACA_site6152]	7.99 ± 0.48
TTTTTTATATTTAAACTTCACATGGTTTTCATTTAT [XGTACX_negctrl_site291]	7.66 ± 0.54
ATACATATATATATATGTACACATAAACATGAGTGA [XGTACX_site3200]	7.87 ± 0.45
TAATGGAAACCATTTATTTTCTGCAATATATTTTTT [CACACA_negctrl_site1653]	7.67 ± 0.35
AATGTAAAATATAAATGTACATATATATATATATAT [XGTACX_site5071]	9.38 ± 0.52
ATTTATTTATACAAAGTGCAATATTTTGTTAAAGTC [GTGCAC_site9618]	10.6 ± 0.48
AAACAAAATATGGTTCATGAGCAAAAGTTTATTTTG [XGTACX_negctrl_site531]	7.58 ± 0.78
CTCTTTTCTTATAATACACACAGTAATATATATATA [CACACA_site1520]	8.9 ± 0.014
ATATGAAATATATAAATATGTTTATATATATATATA [GTGCAC_negctrl_site94]	9.09 ± 0.7
TATAAAATACATTTATAATATATATATATATTTTTT [TGCATGCA_negctrl_site435]	7.36 ± 0.38

Sequence	gcPBM binding intensity (ln)
GTAATTTTAAAGAAAAGTACACATTTATTAATTATT [XGTACX_site4468]	7.63 ± 0.47
ACATATAAATATTGTGTGCACACACATAATATATAT	10.2 ± 0.18
GTGTTAAATGTTTACACACAAACTTGCAATAATTAT [CACACA_site3825]	8.09 ± 0.71
AAAAATTATAACTAAAAAAATCACACAAAATATTTT [TGCATGCA_negctrl_site28]	7.55 ± 0.86
TTGCATTTATTATACACACACAAAAAAATATATATA [CACACA_site238]	8.38 ± 0.38
TATGTATTTAAGTTACCTGAACGTTCAGGTAAAATT [CACACA_negctrl_site1393]	7.7 ± 0.71
TTTATTCTCAAACACACACACATATATATATATATA [CACACA_site2895]	9.28 ± 0.16
TAATTAATAATAATATGTACATATTAATATATTATT [XGTACX_site6900]	7.63 ± 0.33
TTTTATATATATATCACACACACACCCATGTTTTAA [CACACA_site79]	8.07 ± 0.61
TGATAAAGTAAATATACATGCGATTAGTTATATATA [TGCATGCA_site720]	7.74 ± 0.26
TTGATAATTATATAATGTACTCATTATAATATGATG [XGTACX_site7813]	7.8 ± 0.24
TATAAAAAAAAAAAAAGTACTAACTTAAAACAATTT [XGTACX_site7969]	7.56 ± 0.67
AGTTTGTCAATCAACACACACCTATTTATTATAGAT [CACACA_site7777]	7.61 ± 0.62
TATTTATTCTCCAACACACACACATATATTTATATA [CACACA_site7376]	7.93 ± 0.43
AAAAATGAGTGACACACACACATATAAATATAAATA [CACACA_site7115]	7.62 ± 0.33
AAATCAAACTTTGGTGTGCACAAATATATACATATA [GTGCAC_site9986]	10.545 ± 0.007
TTTTTTTTACATTCTGCACACAATTTATTTTTTTTT [CACACA_site36]	9.19 ± 0.52
TTATATGTTTTACAACGTACACAAAAAAAACTTATA [XGTACX_site4413]	7.83 ± 0.23
CATTTTTACCGGTACTGTACATAAAAAAAAAAAAAG [XGTACX_site1548]	8.23 ± 0.43
TAAAAAAAAAGAAGGGGTACATGGATAATATATAAA [XGTACX_site8386]	7.94 ± 0.61
GCAGGCTAAAAAATTACACACGAAAAAAATGAATTT [CACACA_site3417]	7.62 ± 0.69
CATATATGGTTATATACATGCACCATTATATTATTA [TGCATGCA_site520]	9.1 ± 0.2
